# Results published in PubChem BioAssay AID1347073 (National Center for Advancing Translational Sciences (NCATS), 2019).
# Screen size: about 45,000 compounds; about 200 (0.44%) were called active. About 7% were inconclusive and are not listed. Calls come from the whole dose curve; as a rule, active = well fitted activation curve with a large enough effect; inconclusive = small, poorly fitted or top-dose-only effect; inactive = no such curve, though single readings can be large or run the other way. This is one part of the list.
# Test: qHTS of TDP-43 Inhibitors: NCGC Sytravon Library Screen; note: 0% is about no effect; nearly all actives have a fitted effect of over 55% in size
# Settings: yeast TDP-43 toxicity rescue, BacTiter-Glo growth, 24 h; series mostly up to 46.1 µM; growth rescue (activation): at the top concentration
# Summary of the method: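 TDP-43-expressing yeast, pregrown in raffinose, seeded at OD600 0.02 in galactose medium with compound for 24 hr at 30 deg C. Growth read by BacTiter-Glo luminescence, so rescue of toxicity appears as activation.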
row,SMILES,growth rescue (activation)
1,Cn1nnnc1SCc1csc(C2C(C#N)=C(N)OC3=C2C(=O)CCC3)c1 (stereo not drawn),inactive: 8.3%
2,O=C(N/N=C/c1cn(-c2cccs2)nc1-c1ccccc1)c1ccc(O)cc1,inactive: -18.9%
3,NC(=S)N/N=C/c1cccc(O)c1O,inactive: 16.2%
4,CCS(=O)(=O)c1ncc(Cl)c(C(=O)NCc2ccccc2)n1,inactive: -4.3%
5,Cc1[nH]c2ccccc2c1C(=O)CN1CCN(c2ccc(Cl)cc2)CC1,inactive: -1.56%
6,CC(C)c1ccc(NC(=O)c2cc(-c3cc(F)ccc3OCC3CCCO3)n[nH]2)cc1 (stereo not drawn),inactive: 21.9%
7,COc1ccc(CNC(=O)CNS(=O)(=O)c2cccc(C#N)c2)cc1OC,inactive: 4.66%
8,Cc1c(NC2=CC(=O)CCC2)c(=O)n(-c2ccccc2)n1C,inactive: 2.61%
9,CCOc1ccc(OCC)c(NC(=O)CSc2nnc(C3CC3)n2CC)c1,inactive: -34.3%
10,O=C(COc1ccc(Cl)cc1)OCC(=O)N1CCCCCC1,inactive: -3.72%
11,O=C1NC(c2ccccc2)=C(c2ccccc2)C1=O,inactive: -1.44%
12,CCOc1ccccc1Nc1nnc(SC(C)C(=O)Nc2nc(-c3ccccc3)cs2)s1 (stereo not drawn),inactive: 11.7%
13,Cc1cccn2c(=O)c(/C=C(\C#N)C(=O)NC3CCS(=O)(=O)C3)c(N3CCC(C(N)=O)CC3)nc12 (stereo not drawn),inactive: 7.9%
14,COc1cc(C(=O)NCC(=O)N/N=C(C)\C=C\c2ccccc2)cc(OC)c1OC,inactive: 2.05%
15,Cc1cccc(C(=O)NC2CC3CCCC(C2)N3C(=O)NC2CCCCC2)c1 (stereo not drawn),inactive: 7.54%
16,Cc1ccc(C)c(NC(=O)Cc2nc(CNCC(C)C)cs2)c1,inactive: 6.1%
17,CCn1cnnc1SCC(=O)Nc1ccccc1C(=O)NC1CC1,inactive: 19.6%
18,Nc1nonc1-n1nnc(C(=O)N/N=C/c2c(Cl)cccc2Cl)c1CN1CCOCC1,inactive: -6.02%
19,Brc1ccc(/C=N/Nc2ccccc2)cc1,inactive: -3.35%
20,O=C(COc1ccc(Br)cc1Cl)NC(=S)N1CCc2ccccc21,inactive: 6.26%
21,O=C1N=c2ccc(Br)cc2=C1c1sc(=S)n(NS(=O)(=O)c2ccccc2)c1O,inactive: 6.88%
22,C=CCN(C(=O)CSc1nnnn1C)c1nc(-c2ccccc2)cs1,inactive: 17.6%
23,COc1cccc(/C=N/NC(=O)CCc2c(C)n[nH]c2C)c1,inactive: 3.92%
24,O=C(Cn1ccc2ccccc2c1=O)NCC(=O)N1CCN(c2ccc(F)cc2)CC1,inactive: 10.1%
25,Cc1ccc(C(=O)Nc2cccc(C(=O)NC3CCCC3)c2)cc1,inactive: 10.4%
26,c1ccc(CN2CCN(Cc3cn4cccnc4n3)CC2)cc1,inactive: -9.01%

row,SMILES,growth rescue (activation)
1,Cc1nnc(N2C(=O)C(=O)/C(=C(\O)c3ccc4c(c3)CC(C)O4)C2c2ccccc2)s1 (stereo not drawn),inactive: -2.34%
2,CCc1ccc(OCC(=O)N/N=C(\C)c2ccc(-n3ccnc3)cc2)cc1,inactive: 9.28%
3,CC1(C)CC(=O)C(C2C3=C(CC(C)(C)CC3=O)Oc3ccccc32)C(=O)C1 (stereo not drawn),inactive: -0.975%
4,COc1cc(C(=O)NC2CCCC2)c(Br)c(OC)c1OC,inactive: 8.62%
5,CCOC(=O)C1CCCN(C2CCN(Cc3nc(-c4ccccc4)no3)CC2)C1 (stereo not drawn),inactive: -4.98%
6,O=C(Nc1nncs1)c1cc(-c2ccco2)nc2ccccc12,inactive: 3.29%
7,COCCOC(=O)c1c(NC(=O)CNc2ccc(C)c(F)c2)sc(C(N)=O)c1C,inactive: -10.5%
8,CC(C)(C)c1cccc(P(=O)(c2ccccc2)c2ccccc2)c1O,inactive: 10.3%
9,CC(C)Cn1c2c(c(O)c(C(=O)Nc3nc4ccccc4s3)c1=O)CCCC2,inactive: -6.43%
10,COc1cccc(CN2CCN(Cc3[nH]c4ccccc4c3C)CC2CCO)c1 (stereo not drawn),inactive: 6.63%
11,COCCN1C(=O)c2cc(C(=O)Nc3ccc(OC)c(OC)c3)ccc2C1Nc1ccc(OC)c(OC)c1 (stereo not drawn),inactive: 1.88%
12,Cc1c(NC(=O)CN2C(=O)c3ccccc3C2=O)c(=O)n(-c2ccccc2)n1C,inactive: 7.95%
13,Cc1ccc(NC(=O)C2CCN(C(=O)NCc3ccccc3)CC2)cc1C,inactive: 9.25%
14,COc1ccc(C(C(=O)NCC2CCCO2)N(C(=O)Cn2nnc3ccccc32)c2ccc(NC(C)=O)cc2)cc1 (stereo not drawn),inactive: 10.7%
15,O=C(CC(c1cccs1)S(=O)(=O)c1ccccc1)c1ccc(F)cc1 (stereo not drawn),inactive: 6.14%
16,O=C(Nc1ccccc1C(=O)NC(Cc1ccccc1)C(=O)O)c1ccccc1 (stereo not drawn),inactive: -6.42%
17,N/N=c1\sc2ccccc2n1-c1ccccc1,inactive: 38.6%
18,O=C(O)c1ccccc1SC1CC(=O)N(c2cccc3ccccc23)C1=O (stereo not drawn),inactive: -94.7%
19,O=C(CSc1nc2ccccc2[nH]1)NCc1ccc(F)cc1,inactive: 4.54%
20,O=C(Nc1cc(S(=O)(=O)N2CCCC2)ccc1OCC(F)(F)F)c1ccc(F)cc1,inactive: 9.73%
21,O=C(c1ccc2c(=O)n(Cc3ccccc3)c(=S)[nH]c2c1)N1CCCC1,inactive: 4.44%
22,C/C(=N/NC(=O)CNC(=O)C(c1ccccc1)c1ccccc1)c1ccco1,inactive: 4.04%
23,CCN(CC(=O)Nc1cccc(C(C)=O)c1)S(=O)(=O)c1ccccc1,inactive: 3.78%
24,CCOc1ccc2c(c1)[N+](C)(C)C(C)(C)C=C2C,inactive: -6.06%
25,CCC(=O)N1CCN(c2ccccc2NC(=S)NC(=O)c2ccco2)CC1,inactive: 16.1%
26,CCOCCc1nnc(NC(=O)C2CC(=O)N(c3ccc(OCC)cc3)C2)s1 (stereo not drawn),inactive: 2.43%

row,SMILES,growth rescue (activation)
1,CC(=O)c1cccc(S(=O)(=O)NC2CCCCCC2)c1,inactive: 27.9%
2,Cc1ccc(OCC(=O)c2cc(C)n(C)c2C)c([N+](=O)[O-])n1,inactive: 6.51%
3,COc1ccc(S(N)(=O)=O)cc1C(=O)NCC(C)(C)N1CCOCC1,inactive: 0.661%
4,Cc1ccc(C)c(N2C(=O)c3ccc(C(=O)OCC(=O)c4c(N)n(C)c(=O)n(C)c4=O)cc3C2=O)c1,inactive: -2.58%
5,CCc1nc(SCC(=O)Nc2cc(C)ccc2OC)c2c(C)c(C)sc2n1,inactive: 10.4%
6,CCOc1ccc(NC(=O)C2CC(=O)N(c3cc(C)cc(C)c3)C2)cc1 (stereo not drawn),inactive: 13.5%
7,CN(CCCNC(=O)CCc1cn(C)c2ccccc12)C1CCCCC1,inactive: 7.79%
8,O=C(CS(=O)CC(=O)NC12CC3CC(CC(C3)C1)C2)Nc1ccc(F)cc1 (stereo not drawn),inactive: 9.29%
9,CCOC(=O)CC1(NC(=O)C2CCC(=O)N(Cc3ccccc3OC)C2)CCCCC1 (stereo not drawn),inactive: 15.3%
10,CCSc1nc2ccccc2n1CC(=O)O,inactive: 6.74%
11,Cc1cc(C)c(C#N)c(SCC(=O)N2CCCCC2)n1,inactive: 24.8%
12,O=C(COC(=O)c1cncc(Br)c1)Nc1nc(-c2ccc(F)cc2)cs1,inactive: 34%
13,NC(=O)C1CCN(C(=O)CCSc2ccc(Cl)cc2)CC1,inactive: 5.2%
14,COc1ccc(NC2CC(=O)N(c3ccc(C(=O)O)cc3)C2=O)cc1 (stereo not drawn),inactive: -23.8%
15,O=C(O)CCN1C(=O)S/C(=C\c2cccnc2)C1=O,inactive: 12.4%
16,COc1ccc(-n2ncc3c2ncn2nc(Cc4ccccc4)nc32)cc1,inactive: 9.83%
17,N#C/C(=C(/O)c1ccc([N+](=O)[O-])cc1)c1nc2ccccc2[nH]1,inactive: -7.95%
18,CCOc1ccc(CCNC(=O)COC(=O)Cn2cnc3ccccc3c2=O)cc1OCC,inactive: 11.5%
19,Cc1ccc(-c2noc(-c3nnn(-c4ccc(Br)cc4F)c3C)n2)cc1,inactive: 14.1%
20,O=c1[nH]c(Nc2ccc3c(c2)OCCO3)nnc1Cc1ccc(Cl)cc1,inactive: -27.1%
21,O=C(NNS(=O)(=O)c1ccc(F)cc1)C1CCCCC1,inactive: 15.8%
22,O=C(Nc1ccc(F)cc1)Nc1nnc(-c2ccccc2)o1,inactive: 13.2%
23,O=C(Cc1n[nH]c(=O)c2ccccc12)Nc1cccc(S(=O)(=O)N2CCCC2)c1,inactive: 1.86%
24,COc1ccc(NC(=O)c2cncn2-c2ccccc2)cc1,inactive: 12.1%
25,O=C(NNC(=O)c1cccc(C(F)(F)F)c1)c1ccc(-n2cnnn2)cc1,inactive: 9.36%
26,CC1(C(=O)NS(=O)(=O)c2ccc(C#N)cc2)CCN1C(=O)C1(c2ccc(Cl)cc2)CC1 (stereo not drawn),inactive: 1.1%

row,SMILES,growth rescue (activation)
1,C=CCNC(=O)CN1CCC(c2nc3cc(C)c(C)cc3[nH]2)CC1,inactive: 8.9%
2,COc1cc(OC)c(NC(=O)N2CCc3cc(S(=O)(=O)N4CCC(C)CC4)ccc32)cc1Cl,inactive: 2.88%
3,CN(C)CCNC(=O)/C(=C/c1ccc(-c2cccc([N+](=O)[O-])c2)o1)NC(=O)c1ccccc1,inactive: -5.39%
4,COc1ccc(C2Nc3ccccc3C(=O)N2Cc2ccccc2)cc1CN1CCOCC1 (stereo not drawn),inactive: 8.61%
5,CC1(C(=O)NS(=O)(=O)c2cccs2)CCN1C(=O)CC1CCCC1 (stereo not drawn),inactive: 2.48%
6,c1ccc2c(-c3ccc4nncn4c3)cncc2c1,inactive: 8.36%
7,O=C(O)c1ccc(NC2=C(N3CCOCC3)C(=O)c3ccccc3C2=O)cc1,inactive: 24%
8,COc1ccc2c(c1)c(CC(=O)OC(C)C(=O)N(C)C)c(C)n2C(=O)c1ccc(Cl)cc1 (stereo not drawn),inactive: 19.8%
9,O=C1Nc2c(c(=O)[nH]c(=O)n2-c2ccc(F)cc2)C1(NS(=O)(=O)c1ccccc1)C(F)(F)F (stereo not drawn),inactive: 0.18%
10,Cc1cccc(N(C(=O)CCC(=O)Nc2ccccn2)C(C(=O)NC(C)C)c2ccc(F)cc2)c1 (stereo not drawn),inactive: -7.87%
11,CCc1nc2nc(C)c(NS(=O)(=O)c3ccc4c(c3)CCCC4)c(=O)n2[nH]1,inactive: 14.5%
12,CCNc1nc(N)nc(Oc2ccc(C(=O)OC)cc2)n1,inactive: 28.1%
13,Fc1ccc(/C=N/n2cnn(Cc3ccccc3Cl)c2=S)cc1,inactive: 2.06%
14,COc1ccc2c(c1OC)C(=O)OC2C/C(=N\NC(N)=O)c1ccccc1 (stereo not drawn),inactive: 3.31%
15,C=CCOCCN(CCOCC=C)C1=NS(=O)(=O)c2ccccc21,inactive: 2.35%
16,CC1CCCN(S(=O)(=O)c2ccc(NC(=O)C3CC(=O)N(C(C)(C)C)C3)cc2)C1 (stereo not drawn),inactive: 1.46%
17,CCC(=O)N1CCc2cc(Br)cc(S(=O)(=O)N3CCC(C(=O)NC(C)C)CC3)c21,inactive: -1.98%
18,COC(=O)C1=C(O)/C(=C\c2ccc(CNS(=O)(=O)c3ccc(Cl)cc3)o2)N=C1C,inactive: 8.22%
19,Cc1cc(NC(=O)COC(=O)C(C)Oc2ccc(Cl)cc2Cl)no1 (stereo not drawn),inactive: -6.96%
20,O=C(CCCOc1ccccc1)Nc1cccc(S(=O)(=O)N2CCOCC2)c1,inactive: 12.3%
21,CCOC(=O)c1c(-c2ccccc2)csc1NC(=O)CSc1nc(C)cc(C)n1,inactive: 11.4%
22,CCCCNC(=O)C1(C)CCCCN1C(=O)c1cc(C)n(C(C)(C)C)n1 (stereo not drawn),inactive: 8.37%
23,Cc1ccsc1CN(C(=O)COc1cccc(C)c1C)C1CCS(=O)(=O)C1 (stereo not drawn),inactive: 7.37%
24,CS(=O)(=O)c1ccccc1C(=O)NC1CCCc2ccccc21 (stereo not drawn),inactive: 20.6%
25,CN1c2ccccc2C(C)(C)C12C=Nc1c(cc(N3CCOCC3)c3ccccc13)O2 (stereo not drawn),inactive: 5.07%
